# In PMC4336329 (PLoS ONE, 2015):
# Hit rate of the full screen: of about 310,000 compounds, about 14,000 (4.5%) showed an effect of 50% or more. Effects have a minus sign here. Some of the results follow.
# Target: human ether-à-go-go-related gene (hERG) potassium channel (human, UniProt Q12809)
# Test: primary screen, population patch clamp on CHO cells stably expressing hERG
# 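Further: peak tail current of the secondary pulse compared with the same well before compound.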
# Chain of human ether-à-go-go-related gene (hERG) potassium channel (Q12809 whole entry, looked up): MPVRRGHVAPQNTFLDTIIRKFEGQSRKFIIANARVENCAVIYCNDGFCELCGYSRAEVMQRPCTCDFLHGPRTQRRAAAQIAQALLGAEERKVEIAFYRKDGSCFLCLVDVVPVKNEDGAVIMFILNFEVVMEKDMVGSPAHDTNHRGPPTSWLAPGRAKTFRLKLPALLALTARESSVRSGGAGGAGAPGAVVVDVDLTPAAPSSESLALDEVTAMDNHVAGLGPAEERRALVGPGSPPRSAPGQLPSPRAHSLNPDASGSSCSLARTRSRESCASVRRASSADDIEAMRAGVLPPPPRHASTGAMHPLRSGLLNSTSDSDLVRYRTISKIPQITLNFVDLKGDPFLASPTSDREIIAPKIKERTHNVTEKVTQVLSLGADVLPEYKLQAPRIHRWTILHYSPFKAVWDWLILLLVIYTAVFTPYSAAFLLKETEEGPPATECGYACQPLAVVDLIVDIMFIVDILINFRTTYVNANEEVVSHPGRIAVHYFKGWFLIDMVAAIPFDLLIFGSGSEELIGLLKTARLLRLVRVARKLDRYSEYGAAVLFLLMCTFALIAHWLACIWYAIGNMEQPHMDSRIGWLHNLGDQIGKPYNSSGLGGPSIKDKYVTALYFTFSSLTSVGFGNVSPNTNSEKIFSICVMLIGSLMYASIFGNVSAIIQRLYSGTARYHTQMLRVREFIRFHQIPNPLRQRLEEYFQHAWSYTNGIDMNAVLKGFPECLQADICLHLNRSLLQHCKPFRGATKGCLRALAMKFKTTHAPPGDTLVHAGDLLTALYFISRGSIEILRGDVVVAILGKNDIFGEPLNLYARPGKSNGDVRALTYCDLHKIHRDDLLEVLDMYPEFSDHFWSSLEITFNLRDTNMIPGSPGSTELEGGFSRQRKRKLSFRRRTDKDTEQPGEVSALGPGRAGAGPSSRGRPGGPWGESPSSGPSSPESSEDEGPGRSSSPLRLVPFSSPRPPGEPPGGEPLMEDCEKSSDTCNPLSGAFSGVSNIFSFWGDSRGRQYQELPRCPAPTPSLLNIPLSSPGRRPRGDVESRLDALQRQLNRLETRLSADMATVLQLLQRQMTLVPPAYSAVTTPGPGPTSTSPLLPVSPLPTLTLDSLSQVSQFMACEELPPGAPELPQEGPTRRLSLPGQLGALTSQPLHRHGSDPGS
row,SMILES,"hERG current change (%, negative = inhibition) at 10uM [%]"
1,COc1ccccc1NC(=O)CCN1C(=O)c2ccccc2C1=O,4.09
2,CCOC(=O)/C=C1\SCC(=O)N1CCOc1cccc(Br)c1,-5.78
3,O=C(NC(NC(=S)Nc1ccccc1)C(Cl)(Cl)Cl)c1cccc(Cl)c1 (stereo not drawn),7.91
4,O=C(O)c1cc(-c2cccs2)nn1-c1ccc(F)cc1,20.8
5,Cc1ccc(Cn2nc(C)c(C(=O)N3CCN(S(=O)(=O)/C=C/c4ccccc4)CC3)c2C)cc1,-35.1
6,O=C1CCC(=O)N1CCc1c[nH]c2ccccc12,11.1
7,Cc1ccc(N=C2NC(=O)/C(=C\c3ccsc3)S2)c(C)c1,11.3
8,CCOC(=O)c1c(NC(=O)COC(=O)c2nc(Cl)ccc2Cl)sc(C(=O)NC)c1C,-1.21
9,Cc1ccc2cccc(OCC(=O)Nc3ccc(N4CCOCC4)cc3)c2n1,-4.52
10,Cc1nn(C)c(C)c1S(=O)(=O)N(CC(=O)Nc1ccccn1)c1ccc(C(C)C)cc1,-7.4
11,O=C(O)[C@@H]1CCCN1C(=O)CCc1c[nH]c2ccccc12,17.3
12,NC(=O)c1ccc(NS(=O)(=O)c2ccccc2F)cc1,-0.645
13,O=c1[nH]c(N2CCOCC2)nc2c1CCCC2,10.2
14,C#CCOCCOCCOCCNc1nc(N2CCN(C(=O)[C@H](C)n3cc(CCC[NH+]=C(N)N)nn3)CC2)nc(N2CCN(C(=O)[C@H](C)n3cc(CCC[NH+]=C(N)N)nn3)CC2)n1.[Cl-],-6.89
15,CCSc1nnc(NC(=O)c2c(-c3ccccc3Cl)noc2C)s1,0.719
16,Cc1cccc(NC(=O)CSCC(=O)N(CCC(C)C)c2c(N)n(Cc3ccccc3)c(=O)[nH]c2=O)c1,-8.08
17,NC(=O)CSc1oc(-c2ccc(F)cc2)nc1S(=O)(=O)c1ccccc1,-8.24
18,CCCn1c(SCC(=O)Nc2sc(C)c(C)c2C#N)nnc1C(C)C,-9.76
19,Cc1cc(O)c2c(c1)OC(C)(C)C1=C2CC(C)CC1 (stereo not drawn),7.38
20,CCN(CC)CCNCc1ccc(OCc2ccc(Cl)nc2)c(OC)c1,-14.6
21,CCC(=O)Nc1cc(SCCO)cc([N+](=O)[O-])c1,5.96
22,CCOC(=O)N1CCN(C(=O)C2CCC(=O)N(CCCc3ccccc3)C2)CC1 (stereo not drawn),3.58

row,SMILES,"hERG current change (%, negative = inhibition) at 10uM [%]"
1,Fc1ccc(N2CCN(Cc3cc4c(cc3Br)OCO4)CC2)cc1,7.74
2,COC(=O)c1ccccc1NC(=O)N1c2ccccc2CC1C (stereo not drawn),-11.5
3,CC(NS(=O)(=O)c1ccc2[nH]c(=O)c(=O)[nH]c2c1)C(=O)O (stereo not drawn),14.4
4,CC(C)N1CC(COc2ccc(Cl)cc2Cl)OC1=O (stereo not drawn),-44.6
5,CCCOC(=O)c1ccc(Oc2cn[nH]c2-c2ccc(O)cc2O)cc1,24.6
6,COc1ccc(/C=C/C(=O)c2cc(Br)ccc(=O)c2O)cc1,11.9
7,CCN(CC)CCCN=Cc1c(O)n(Cc2ccc(F)cc2)c(=O)[nH]c1=O,-33.7
8,CC1CN(C(=O)c2cc(-c3ccc(Cl)s3)nc3ccccc23)CC(C)O1 (stereo not drawn),-6.18
9,CC1CCCCN1C(=O)c1ccc(C(=O)N2CCCCC2C)cc1 (stereo not drawn),-4.56
10,COC(=O)c1cc(OC)c(OC)cc1NC(=S)N1CCC(C(N)=O)CC1,-4.78
11,COc1cc2c(cc1OC)CN(C(=O)CCOc1ccccc1C)CC2,-5.81
12,CC(C)=CCN1CCN(Cc2coc3ccc(C)cc3c2=O)CC1CCO (stereo not drawn),-23.6
13,COC(=O)CSc1nnc(CCc2nc3ccccc3[nH]2)n1C,6.11
14,COCCn1c(-c2ccccc2)cnc1N,-16
15,CSc1nnc(Cn2c(=O)sc3ccccc32)n1-c1cccc(Cl)c1,-37.9
16,CCOc1ccc(C(=O)Nc2nc3ccccc3[nH]2)cc1OCC,-22.8
17,COC(=O)C1SCC2C(=O)N(Cc3ccc(Cl)c(Cl)c3)CC(=O)N21 (stereo not drawn),-10.1
18,COc1cc(/C=C/C(=O)OCc2csc(CC(=O)Nc3ccc(C)cc3)n2)ccc1OCC#N,7.63
19,Cc1nc2ccccc2c(=O)n1-c1cccc([N+](=O)[O-])c1,8.49
20,Cc1ccccc1-c1nnn(C/C(N)=N/O)n1,20.9
21,CN(C(=O)c1ccc(NC(=O)Cc2cccc(NC(=O)C3CCN(C(=O)CCc4ccccc4)CC3)c2)cc1)C1CCCC1,7.84
22,CCC(C)(C)n1nnnc1C(c1ccc(C)cc1)N1CCCC1.Cl (stereo not drawn),-11.7

row,SMILES,"hERG current change (%, negative = inhibition) at 10uM [%]"
1,O=C1NC[C@H](Cc2ccccc2)N(CCc2cccc(F)c2)C1=O,-7.97
2,COc1ccccc1OCCSc1nc2ccccc2n1CC(N)=O,18.7
3,Cc1ncc(C[n+]2csc(CCOC(=O)C34CC5CC(CC(C5)C3)C4)c2C)c(N)n1.Cl.[Cl-],-31.3
4,CCC(C)n1c(O)c(/C=N/NC(=O)c2ccncc2)c(=O)[nH]c1=S (stereo not drawn),-2.03
5,COC(=O)c1ccc(-c2ccco2)n1Cc1nc(-c2ccc(OC)c(OC)c2)oc1C,-2.63
6,COc1ccc(CCN(C)C2CCCN(S(=O)(=O)N(C)C)C2)cc1OC (stereo not drawn),-8.26
7,O=C1CC(c2cccnc2)=NN1c1ccccc1,17.5
8,CCOc1ccc(Br)cc1CC(=O)O,0.738
9,CC1CCCCN1C(=O)Cn1c(=O)oc2cc(S(=O)(=O)N3CCCC3)ccc21 (stereo not drawn),7.08
10,Cc1ccc(Nc2oc(C)nc2C#N)cc1,5.2
11,CCOC(=O)C1CCCN(CCC(=O)Nc2cccc(C)c2)C1.Cl (stereo not drawn),-24.5
12,COc1cccc(NC(=O)CN(C)S(=O)(=O)c2ccc3[nH]c(=O)oc3c2)c1,12
13,COc1ccccc1C(=O)NCC(=O)OCc1csc(-c2ccccc2)n1,-4.62
14,CCOc1ccc2nc(NC(=O)CN3C(=O)C4CCCCC4C3=O)sc2c1 (stereo not drawn),-9.62
15,CCOc1ccc2[nH]c3c(c2c1)CNCC3,-3.72
16,CCc1ccc(-n2nnnc2SCC(=O)Nc2ccc(NC(C)=O)cc2)cc1,23.5
17,Cc1nn(-c2ccc(C(=O)O)cc2)c2c1C(=O)CC(C)(C)C2,15
18,O=C1c2ccc3c4c(ccc(c24)C(=O)N1NC(=O)C(F)(F)F)CC3,4.47
19,CN1C(=O)CSC1=Nc1cccc(Cl)c1,-0.00382
20,COc1cc(C(=O)NCCOc2ccccc2)c(Br)c(OC)c1OC,-31.3
21,Cc1cc(C)n(-c2nc(C(=O)O)cs2)n1,17.7
22,CC(C)CN(C(=O)CN1CCC(C)CC1)c1c(N)n(CC(C)C)c(=O)[nH]c1=O,18.7

row,SMILES,"hERG current change (%, negative = inhibition) at 10uM [%]"
1,CC(=O)Nc1ccc(NC(=O)CCCNC(=O)c2ccc(Cl)cc2)cc1,21.8
2,OCCN(CCO)c1ccc(C(c2ccc(Cl)cc2)c2ccc(N(CCO)CCO)cc2Cl)c(Cl)c1,-9.81
3,O=C(c1ccc(F)cc1)N1CCN(c2cc(=O)[nH]nc2-c2ccccc2)CC1,-4.51
4,Nc1nnc(CC(=O)N/N=C\c2ccc(-c3cccc(Cl)c3)o2)s1,-18.4
5,O=S(=O)(NC1c2cccc3cccc(c23)C1N1CCNCC1)c1ccc(Cl)cc1 (stereo not drawn),-42.3
6,COC(=O)CN(c1ccc2c(c1)OCO2)S(=O)(=O)c1c(C)[nH]c(=O)[nH]c1=O,-4.17
7,Cn1c(=O)c2c(nc(CN3CCc4ccccc4C3)n2CC(=O)c2ccccc2)n(C)c1=O,-0.421
8,CCO/N=C(\C)c1c(O)c(CC)c(-c2ccccc2)n(-c2ccccc2)c1=O,0.757
9,CSc1ccc(COC(=O)CCS(=O)(=O)c2ccc(C)cc2)cc1,-9.83
10,O=C1CCCN1CC(=O)N1CCCC(N2CCN(c3cccc(Cl)c3)CC2)C1 (stereo not drawn),8.15
11,CCC(C)n1c(O)c(/C=N/N2CCOCC2)c(=O)[nH]c1=S (stereo not drawn),-16.4
12,CC(=O)N(C)c1nc(N)n(-c2ccccc2)n1,-25.2
13,CCOC(=O)c1c(N2CCN(c3ccccc3)CC2)cc(C)nc1C.O=C([O-])C(=O)[O-],-72
14,COc1cccc(NC(=O)CN2CCN(c3ccc(F)cc3)CC2)c1,-17
15,COCCNC(=O)c1c[nH]c2ccc(OC)cc2c1=O,-17.6
16,CCC(=O)Nc1nnc(S(=O)(=O)N(CC(C)C)c2ccccc2)s1,21.3
17,O=C(CCCN1C(=O)c2cccnc2C1=O)Nc1ccc(F)cc1Cl,3.87
18,C[C@@]12C(=O)N(Cc3ccc(Cl)cc3)CC(=O)N1[C@H]1c3ccccc3OC[C@@H]1[C@@H]2c1ccccc1,7.87
19,Cc1c(Br)c([N+](=O)[O-])nn1CC(=O)NCCc1c[nH]c2ccccc12,-16.2
20,Cc1ccc(C(=O)C(C)OC(=O)Cn2[nH]c(=O)c3ccccc3c2=O)cc1 (stereo not drawn),27.2
21,O=C(O)CCn1cc(C=C2C(=O)NC(=O)NC2=O)c(-c2ccc(Br)cc2)n1,7.08
